Data: PMC4336329 (PLoS ONE, 2015)
Screen size: about 310,000 compounds; about 14,000 (4.5%) showed an effect of 50% or more. Effects have a minus sign here. The list shows a part of the results.

biological target: human ether-à-go-go-related gene (hERG) potassium channel (human, UniProt Q12809); assay: primary screen, population patch clamp on CHO cells stably expressing hERG
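Further: peak tail current of the secondary pulse compared with the same well before compound.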

human ether-à-go-go-related gene (hERG) potassium channel, sequence (Q12809 whole entry, looked up): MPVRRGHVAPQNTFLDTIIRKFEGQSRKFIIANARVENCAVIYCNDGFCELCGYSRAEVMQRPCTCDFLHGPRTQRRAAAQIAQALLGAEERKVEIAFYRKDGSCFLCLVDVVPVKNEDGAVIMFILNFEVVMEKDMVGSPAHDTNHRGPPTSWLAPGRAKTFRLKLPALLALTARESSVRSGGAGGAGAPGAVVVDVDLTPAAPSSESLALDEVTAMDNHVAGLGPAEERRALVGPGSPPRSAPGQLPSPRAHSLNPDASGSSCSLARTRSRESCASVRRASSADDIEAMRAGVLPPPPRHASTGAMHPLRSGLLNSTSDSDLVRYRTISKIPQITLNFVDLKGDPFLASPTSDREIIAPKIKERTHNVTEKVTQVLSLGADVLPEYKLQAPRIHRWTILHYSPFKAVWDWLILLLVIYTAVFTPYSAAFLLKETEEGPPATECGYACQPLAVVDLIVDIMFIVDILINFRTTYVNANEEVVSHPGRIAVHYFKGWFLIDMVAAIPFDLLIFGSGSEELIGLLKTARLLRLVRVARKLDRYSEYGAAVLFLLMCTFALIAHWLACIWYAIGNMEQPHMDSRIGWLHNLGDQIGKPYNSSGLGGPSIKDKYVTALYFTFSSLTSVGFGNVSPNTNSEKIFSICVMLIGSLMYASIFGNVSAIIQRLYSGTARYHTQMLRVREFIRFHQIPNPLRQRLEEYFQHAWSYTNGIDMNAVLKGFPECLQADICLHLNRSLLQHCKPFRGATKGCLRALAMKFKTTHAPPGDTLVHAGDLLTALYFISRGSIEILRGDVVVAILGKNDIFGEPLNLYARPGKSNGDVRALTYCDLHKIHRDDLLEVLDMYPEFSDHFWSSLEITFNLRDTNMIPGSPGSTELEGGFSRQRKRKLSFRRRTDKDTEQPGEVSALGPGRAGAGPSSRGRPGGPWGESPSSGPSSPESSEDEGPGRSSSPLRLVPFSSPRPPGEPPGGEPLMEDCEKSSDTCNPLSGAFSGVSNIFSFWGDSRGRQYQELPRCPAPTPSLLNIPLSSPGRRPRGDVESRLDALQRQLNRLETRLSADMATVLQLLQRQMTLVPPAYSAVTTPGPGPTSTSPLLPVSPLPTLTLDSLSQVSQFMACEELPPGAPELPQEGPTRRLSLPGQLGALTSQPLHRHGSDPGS

SMILES | hERG current change (%, negative = inhibition) at 10uM [%]
CCOc1ccc(N(CC(=O)Nc2cc(Cl)ccc2C)S(C)(=O)=O)cc1 | -16.4
Cc1cccc(N2CCN(S(=O)(=O)c3ccc4c(c3)n(C)c(=O)c(=O)n4C)CC2C)c1 (stereo not shown) | -7.04
CCOCCCNC(=O)CN1C(=O)CSc2ccccc21 | -8.97
COCCNC(=O)CC(=O)N/N=C/c1ccc(C(=O)OC)cc1 | 20.7
CCOC(=O)N1CCC(NC(=O)CS(=O)(=O)Cc2nc(-c3cccc(OC)c3)oc2C)CC1 | -54.2
O=C(NC(=S)NC1CCCC1)c1ccccc1Br | 15.2
O=C(Cn1nnc2ccccc2c1=O)NC1CCCCC1 | 19.9
COc1ccc(CC(=O)N2N=C(C)CC2(O)C(F)(F)F)cc1 (stereo not shown) | 2.87
CCOC(=O)c1c(Cc2cccc(Cl)c2)c[nH]c1C | -3.91
C=C(C)c1cccc(C(C)(C)NC(=O)NCc2ccc(OC)cc2)c1 | 12.5
COc1ccc(Nc2nccc3c2nnn3C)cc1 | 9.82
Cc1cccc2cc(COC(=O)C(C)C)c(=O)[nH]c12 | -69.3
O=S(=O)(c1ccc(Cl)cc1)N1CCN=C1SCc1cccc(Cl)c1 | -5.86
COC(=O)C1=C(c2ccc(Cl)c(C(F)(F)F)c2)C[C@@H]2CC[C@H]1N2C(=O)NCCOc1ccc(OC)cc1 | 11.4
COc1ccccc1CCc1nnc(N)s1 | 14.5
Cc1cccc(S(=O)(=O)c2c(N)n(/N=C/c3cccnc3)c3nc4ccccc4nc23)c1 | -4.67
Cc1cc(NC(=O)CSCC(=O)Nc2ccccc2Oc2ccccc2)no1 | -8.79
Cc1ccc(S(=O)(=O)c2c(C)cc(C)nc2Cl)cc1 | -2.14
c1ccc(C2[C@H]3CN(CC4CCCCC4)[C@H](c4ccccc4)C34CC2(c2cccnc2)C4)cc1 (stereo partly shown) | -9.14
N/C(=N\[N+](=O)[O-])N1CCN(C(=O)Oc2ccccc2)CC1 | 17
CN(Cc1ccccc1)C(=O)C1CCN(S(=O)(=O)c2cccc3nsnc23)CC1 | -12
CCNc1ccc(S(=O)(=O)N(C)C)cc1[N+](=O)[O-] | -11.6

SMILES | hERG current change (%, negative = inhibition) at 10uM [%]
Cc1nc(SCC(=O)Nc2nccs2)c(C#N)c(C)c1C | 16.2
O=[N+]([O-])c1ccc(-n2ccnc2)cc1 | 7.95
CC(=O)C[C@@H](O)CC(=O)[C@@H]1OC(=O)CC/C=C\Cc2ccccc21 | 16
COc1cccc(C(C(=O)NC2CCCC2)N(Cc2ccc(C)cc2)C(=O)c2ccco2)c1OC (stereo not shown) | 6.86
COc1ccc(/C=N/Nc2cc(N3CCCC3)nc(N3CCCC3)n2)cc1 | -31.7
Oc1ccccc1CNCCCNCc1ccccc1O | -5.59
O=C(Cc1ccccc1[N+](=O)[O-])NCCC1=CCCCC1 | 7.74
COc1cc(C2CC(=O)NC(SCC(=O)Nc3ccccc3C)=C2C#N)ccc1O (stereo not shown) | 9.64
Cc1cccc(NC(=O)c2cnccn2)c1 | 14.3
CCc1ccc(NC(=O)CC2C(=O)N(c3ccc(C)cc3)C(=O)N2C2CC2)cc1 (stereo not shown) | -4.46
CCN(c1ccc(C(=O)CN2C(=O)NC3(CCOc4ccccc43)C2=O)cc1)S(C)(=O)=O (stereo not shown) | -1.91
O=C(CN(C(=O)CCC(=O)Nc1ccccn1)c1ccc(F)cc1)NCc1ccc(F)cc1 | -3.16
COc1cccc2cc(C(=O)Nc3cccc(C)n3)c(=O)oc12 | 4.36
CCOC(=O)c1c(C)[nH]c(C)c1S(=O)(=O)NCc1ccc(OCC)cc1 | -7.15
CCN(CC)c1ccc(S(=O)(=O)N2CCOCC2)cc1NC(=O)CSc1nncn1C | 5.7
CC(=O)c1c(C(C)=O)c(C)n(C(c2ccccc2)c2ccccc2)c1C | -9.83
O=C(CN1C(=O)C2C3C=CC(C3)C2C1=O)NCc1ccco1 (stereo not shown) | 1.25
COc1cccc(NC(=O)CN(C)C(=O)CN2C(=O)NC3(CCCC3)C2=O)c1 | -11.8
Cc1ccc(C)c(S(=O)(=O)N2CCN(C(=O)CCNS(=O)(=O)c3ccc(C)c(C)c3)CC2)c1 | -5.1
CCOC(=O)C1CCN(Cc2cc(=O)oc3c(C)c(C)ccc23)CC1 | -3.23
COCCn1c(SCC#N)nnc1-c1ccc2c(c1)OCO2 | -24.2
CCC(=O)Nc1c(-c2ccc(C)cc2)nc2ccc(C)cn12 | -0.87

SMILES | hERG current change (%, negative = inhibition) at 10uM [%]
Cc1c(NC2(c3nnnn3-c3ccc(Br)cc3)CCCCC2)c(=O)n(-c2ccccc2)n1C | -36.3
Cc1ccc(CN2CCC(Oc3ccc(C(=O)NCc4ccccn4)cc3)CC2)o1 | -15.2
Cc1ccc(OCC(=O)O/N=C(\N)c2ccncc2)c(C)c1 | -6.39
Cc1ccc(CNC(=O)C2CCCN(S(=O)(=O)c3cccnc3)C2)cc1 (stereo not shown) | -9.82
O=C(NCCC1=CCCCC1)C1CCC(CNc2c(N3CCCC3)c(=O)c2=O)CC1 (stereo not shown) | 29.2
COc1ccc(OCCSc2nnc(C)n2-c2ccccc2)cc1 | -32.8
COCCn1c(C)cc(C(=O)COC(=O)c2ccc(N3CCCC3=O)cc2)c1C | 3.89
Cn1c(SCC(=O)Nc2ccccc2)nnc1-c1ccc2nonc2c1 | -9.53
O=C(/C=C/c1cccs1)NC1CCCC1 | 18.1
Cc1cc(C(=O)NCCCN2CCCC2=O)no1 | 10.9
O=C(CCCCn1c(=O)c2ccccc2n(Cc2ccccc2F)c1=O)NC1CCN(Cc2ccccc2)CC1 | -9.04
CCCCCCOC(=O)C(C#N)c1nc2ccccc2nc1N1CCN(C)CC1 (stereo not shown) | -74.7
CC(Oc1ccccc1)C(=O)Nc1cccc([N+](=O)[O-])c1 (stereo not shown) | -22
C/C(=N\NC(=S)NCc1ccccc1)c1cccc(Br)c1 | 10.6
Cc1ccc(S(=O)(=O)N2CCCOC2CNC(=O)C(=O)NCc2ccccn2)cc1 (stereo not shown) | 4.8
CCOC(=O)c1cnn2c1[nH]c(=O)c1ccccc12 | 7.36
CCCCn1c(-c2ccccc2C)nc2cc3[nH]c(=O)c(C(C)C)nc3cc21 | -1.92
COc1ccc(NC(=O)Nc2nc3ccccc3s2)cc1 | 7.87
O=C(NCC1CCCO1)c1cccc(-n2cnnn2)c1 (stereo not shown) | 14.3
Cc1ccc(CCNC(=O)CN(C)S(=O)(=O)c2ccc3c(c2)n(C)c(=O)c(=O)n3C)cc1 | -44.2
NC(=O)NC(=O)COC(=O)c1sc2ccccc2c1Cl | 3.64
Cc1cc(SCC(=O)NC2CCCCC2)nc2ccccc12 | 7.88

SMILES | hERG current change (%, negative = inhibition) at 10uM [%]
O=C(c1cc(-c2cccc(Cl)c2)nc2ccccc12)N1CCCC1 | -40.2
CC(C)OC(=O)/C(C#N)=C/c1ccc(-c2ccc(SC(F)F)cc2)o1 | 10.2
COc1ccc(/C=C/C(=O)N2CCN(S(=O)(=O)c3ccccc3)CC2)cc1OC | -9.26
NC1CCCCC1N=Cc1c(O)n(Cc2ccc(F)cc2)c(=O)[nH]c1=O (stereo not shown) | 0.861
CC(OC(=O)/C=C/c1ccccc1)C(=O)NC1CCCCC1C (stereo not shown) | -7.05
Cc1ccc(NC(=O)c2ccccc2F)cc1S(=O)(=O)N1CCCCCC1 | 9.92
Cc1ccc(O)c(NC(=O)CSc2n[nH]c(C)c2[N+](=O)[O-])c1 | 13.8
C=CCN1c2ccccc2[C@]23C[C@@H](C(=O)OC)N(C(=O)CC(C)C)C2=NC(C(=O)OC)=C(C(=O)OC)[C@H]13 | -12.3
COCCNS(=O)(=O)c1cc2[nH]c3c(c2cc1C)C(=O)CC(C)(C)C3 | 17.8
CCCC(=O)NCCc1nc2ccccc2n1CC(=O)c1ccccc1 | -12.8
CCOC(=O)N1CCN(C(=O)CCC(=O)c2ccc(OCC)cc2)CC1 | -1.5
O=C(CSc1nnc(-c2cccnc2)o1)Nc1ccccc1F | 9.96
O=c1c2c3c(sc2ncn1Cc1ccc(F)cc1)CCC3 | -15.3
CN1C(=S)SC(/[N+]([O-])=C\c2ccc(Cl)cc2)C1(C)C (stereo not shown) | -4.58
COc1cccc(CN2CCN(C3CCOCC3)CC2CCO)c1 (stereo not shown) | 0.171
CCN(CC)S(=O)(=O)c1ccc2c(c1)nc(CCC(=O)Nc1ccc(N3CCOCC3)cc1)n2C | -6.8
COc1cccc2cc(C(=O)c3ccccc3)oc12 | 0.79
CCC(C)NC(=S)Nc1ccc(F)cc1 (stereo not shown) | 14.6
CC1(c2ccc(Cl)cc2)NC(=O)N(CC(=O)N2CCc3ccccc3C2)C1=O (stereo not shown) | -38.9
CCn1cnc2cc(NC(=O)c3cccs3)ccc21 | -6.25
COc1ccc(CN(C(=S)Nc2ccccc2)C2CC(=O)N(c3ccc(Cl)cc3)C2=O)cc1 (stereo not shown) | 1.63
COc1ccc(C(=S)N2CCOCC2)cc1OC(=O)c1ccccc1 | 5.91
